Laboratory results from the supplement of paper PMC3334620.
The full ranking holds about 33,000 sequences; the median of “E-score (-0.5 to 0.5)” is about -0.056, and the highest 2% start at about 0.38. The list shows a part of the results.

Molecular target: Stb4 (UniProt P50104)
Experiment: PBM E-score (8-mer binding enrichment) (E-score (-0.5 to 0.5)); higher = stronger / more preferred TF binding; most listed sequences are background and not binding sites
Settings: protein concentration: 200 nM; construct: GST-DNA-binding domain
Method in brief: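 Detection of bound protein used fluorescent anti-GST, with scans normalised by masliner. The proteins were GST-tagged yeast transcription factors applied at about 100-200 nM to universal all-10-mer Agilent arrays made double-stranded by primer extension. Each ungapped eight-base word, pooled with its reverse complement, was scored with an E-score from the Universal PBM Analysis Suite.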

Sequence | PBM E-score
GGTCCCTA | -0.115
CGATATAC | 0.0593
CTGTCGTA | -0.158
GCCCTCAA | -0.0883
ACCGGAGA | 0.187
CCGAAGAC | 0.374
CGCGTTGA | -0.0508
ATCCAGGC | -0.257
CTCTAGCC | 0.0112
GGAAGCCC | 0.272
ACCTTTAT | -0.156
CTGGGTTC | 0.0654
AGGAGACA | -0.0517
GTAAGAGA | -0.241
GCGTACCC | 0.197
CAATTCGC | 0.0284
GGCGGAGA | 0.196
GCATCGGC | 0.277
GTAGGTTA | -0.0692
GTCTAAGA | -0.0862
GTTTTACA | -0.126
CTCTATTC | 0.0692
GTAATGAC | -0.00934
ATCCACGC | -0.188
ACGTGCTA | -0.212

Sequence | PBM E-score
CACTGCGA | -0.102
CTTCTCAA | -0.176
ACAGACCT | 0.00106
GATCTACA | -0.112
AAAATTCA | 0.0549
CAAAGGTC | -0.194
ACGGTTGA | -0.0317
AGTACCCG | 0.374
AATCGGAT | 0.424
CCAGTCGA | -0.124
AGTCTTCG | -0.008
GGGAACGA | 0.0562
CCCTGTCA | -0.217
AATGCAAT | -0.269
GGTTGTTA | 0.1
CGAACCAG | 0.0364
TCTACCAA | -0.212
ACCCTGGA | -0.0928
AGGGCAGA | -0.385
ATCGAGCG | -0.0388
CTTACGGA | 0.228
CGGAGAAG | 0.141
CCCACAAA | -0.0724
AAATAGTG | -0.0693
AGTAAGAT | -0.0775

Sequence | PBM E-score
AACTCTCA | -0.188
CTCCTGGC | -0.113
GACTGGAA | -0.105
CAGTGGGA | -0.0824
CATCAAAC | -0.176
GGGTTGGA | 0.00594
ACGCCCAA | -0.0756
CGGCTGGA | 0.207
AGTAATAC | 0.00139
AGTGAATA | -0.0875
GGCGCAAC | -0.207
AAAGTAAC | -0.0491
ACCTCTAG | -0.142
AGGCGCCC | -0.207
CGACAGTA | 0.00744
ATATTGCC | 0.177
AACACACC | 0.089
AGTACATC | -0.157
ACAAAGTA | -0.0971
CATTGCGC | -0.0387
AATTCCCT | -0.131
GGCACCAC | 0.133
TAAGTATA | 0.0522
GCGAGTAA | -0.0189
TCCCCAGA | -0.35

Sequence | PBM E-score
ATAGACCA | -0.109
ATCACCGA | 0.287
TCAGAACA | -0.157
GCTGTCAA | -0.0775
AAGGAAGG | -0.18
CACTAGTC | -0.154
GTGCACTA | 0.00179
ACCAGTGC | -0.227
CGGTAAGA | 0.271
AAGTGAGT | -0.139
CCCACGGG | 0.128
AACTGTGC | -0.157
CAAGCTCC | 0.0378
ATTTGAAC | 0.124
ATAAATCC | 0.151
AACAAAGT | 0.00095
CCCGATTC | 0.274
ACACTGAC | -0.0283
CTTCGTCA | -0.177
CGATACAC | -0.0871
CCCGCCAC | 0.119
TACGCCAA | -0.259
AAAGGGCG | -0.101
CGCCGAGA | 0.361
AATATATG | 0.0875

Sequence | PBM E-score
ACACGGGC | 0.198
AGTACTCC | 0.0979
CGTCAGCA | -0.142
GATCTAAC | -0.0701
AATTTTCT | 0.0431
AACAGTCT | -0.182
AACCAATA | -0.0126
AAGTGTTG | 0.032
CCCCTCCG | 0.22
TACAGTCA | -0.187
AACGAACC | -0.118
CCAGTTGC | -0.0304
TGCCCCCA | -0.311
ACAGCGAA | -0.113
TGAGAGCA | -0.178
ATCATTAA | 0.0733
CATCAGCA | -0.0939
CGTGGCTA | -0.164
ACCGTTCG | 0.137
CATTGGGA | -0.114
AATCAATA | -0.0212
GATCCATC | 0.141
ACGAAGAC | -0.242
CGCTCTGA | -0.111
CCCCGGTC | 0.174

Sequence | PBM E-score
CAAGAGGC | -0.305
CCTTCGAC | -0.143
GATCTCTA | -0.0683
ACTTAACG | -0.264
CACGCTGC | -0.0655
AGGTCCAC | -0.122
AAAGCGGT | 0.0797
ATGTTCGC | -0.118
AAATCTGT | -0.0754
CAGTGTTC | 0.0908
CCACTGCG | -0.0112
ATCTCGTC | 0.00476
AGCCCAAG | -0.0203
AAAATAGT | -0.147
ACAAGCGA | -0.0167
GAGCGGCC | 0.0657
CCTGATAC | -0.148
CGCCTTTA | -0.0578
CAATTATA | -0.0776
CGGTAGTA | 0.189
CCAGTCTA | -0.238
GCTTGTGA | -0.242
ACGGGTGC | 0.222
GCTGCCTA | -0.191
AAATCTAC | 0.00968

Sequence | PBM E-score
ACCTGTCA | -0.117
CACCTATG | -0.121
CATGTTCC | 0.115
GCGTGCTA | -0.29
ATAGATGG | -0.227
CTGCTCTA | -0.191
CGGCACGA | 0.296
ACACCTAG | -0.277
GCCCAATA | -0.00539
ATTGTCAC | -0.122
AGAGACCG | 0.018
CCTAACCA | -0.216
TCACCAGA | -0.211
GGGTAGCA | 0.209
CCCCGCTA | 0.126
GGTCGTTA | -0.108
ATGTTGCA | -0.216
AAAGGTCA | -0.138
GTGCCACA | -0.103
AGCGACGA | -0.265
TACCATAA | -0.0955
GGGACGAC | -0.0514
TACAATAA | -0.141
CGTTAAAA | -0.106
CGGGTAAG | 0.336

Sequence | PBM E-score
ACTATCCC | -0.044
GGAACACA | 0.0485
ACCCCCGG | 0.209
AAGAGCGC | -0.202
CGGCCGTC | 0.0972
CATCCGAA | 0.476
CACTGCCC | -0.0371
AGGCGGCG | -0.0568
AAAGCGGA | 0.242
CATGGAGC | -0.231
GCCGTATA | 0.107
GCACCTCC | 0.0311
CTTGGAGC | -0.228
CCGCATAA | 0.288
CCAAGAAG | -0.106
CTTTCGTC | -0.0646
AAATCTTA | -0.0414
CTGACATA | -0.126
ACTATTCG | -0.0568
CGGCACTA | 0.331
AGATGCGC | -0.0689
ACAGTAGC | -0.114
GATTGCAA | 0.0448
CGAACTAC | 0.2
ACTATAAC | -0.201

Sequence | PBM E-score
AGAGGTCC | 0.0132
CTGAGAGC | -0.138
ACGTAGAC | -0.197
GCCGACGA | 0.285
CGATTCGC | 0.0552
GACGAGAA | -0.169
GGCGCACA | 0.0503
AGAAAAGC | -0.141
CGTAAAGC | -0.31
TAATATCA | -0.159
ATCTTACA | -0.15
CTCATCCA | -0.204
TTGGGAAA | -0.079
CCCGGTAG | 0.254
ACCGAGCC | 0.356
CCAATCGG | 0.18
TACTAGGA | -0.0288
AGGACACT | -0.176
ATCATTCA | -0.0577
CGATTAGC | 0.111
AACGGATC | 0.306
CGCTAGAG | -0.165
CTTCAGGC | -0.132
GTGTAAGA | -0.221
GGAACGAA | 0.161

Sequence | PBM E-score
ACCCCTTA | -0.186
CTAGAGAG | -0.221
CTACCGTC | 0.0657
GAGGTGTA | 0.00625
CAAGGGTG | -0.186
CGGGTTAC | 0.205
ACTTTGCT | -0.0436
GCGGATTA | 0.0668
TAAGGTAA | -0.0267
GCTGCAGC | 0.0465
GCCTTTAA | -0.0779
AATTCGGC | 0.357
CGTCATAC | -0.02
GAGAGAGA | -0.0487
GCTTCGAA | -0.121
CTGCGCGA | -0.106
ATATGTGG | -0.272
AGACAACT | -0.256
AGTTCCCC | 0.138
AAAGCATC | 0.174
TACTCGAA | -0.25
AAGTAAGG | -0.0235
ATGGGGAA | -0.0799
GTGATCAC | 0.176
AATCGACC | 0.0569

Sequence | PBM E-score
AAGGGGGC | -0.209
AGTGAAGC | -0.163
GGTAAACA | 0.12
AGCTGAAC | -0.119
AAATCTGG | 0.0311
AACGGTAT | -0.0638
CGCGGATC | 0.263
CGCACAGC | 0.0145
AATGGGTA | -0.0523
GCCCCTCC | 0.204
AGGACTTA | -0.173
CCTGCATA | 0.0335
CCCAGTAC | -0.185
AATGTGCC | 0.103
GGGAGACA | 0.146
CCGCGAGC | 0.173
GCGTTACC | -0.00688
GTGTCGCA | -0.0287
GAGTAGCC | -0.00602
TCCTTTAA | 0.0266
CCCGCGTC | 0.25
CGAGTGAC | -0.0128
ACTGTGGG | -0.269
ATATAATG | -0.163
CGTAGATA | -0.00493

Sequence | PBM E-score
CCGGGCAA | 0.223
AGATTGCA | 0.0801
GCGACACA | -0.0947
ATCGTAGG | -0.21
CACCAGTC | -0.162
GGTACCTA | -0.0355
CGATTAGA | -0.0351
GTGGTGGA | -0.0396
CCCACAGA | -0.234
CGGATAGA | 0.454
ATCAGATA | -0.209
ATCTTAGG | -0.179
AACCTCGT | -0.062
AGACTAGG | -0.205
CAAGCGTG | -0.256
TCTATACA | -0.163
GACTAAAC | -0.113
ACCCCCCA | -0.245
CGACTGAA | 0.0189
CTGTACTC | -0.298
ACAATGGA | 0.0158
ACGCTTCC | 0.183
CGCTCCGA | 0.346
GGTGGCCA | -0.0956
GAAAGATA | 0.0434

Sequence | PBM E-score
CGTACTAA | -0.0489
AGTGGGCG | -0.066
AATCCGAC | 0.346
GGGCCATA | 0.123
CTTCGCAA | -0.193
TATAGCGA | -0.106
ACGGATAC | 0.407
CACCAGCC | 0.131
CTTTGACA | -0.0553
ACCGGTAG | 0.0233
AAACATGA | -0.144
TCTCTTAA | -0.0883
AAAGTGGC | -0.102
GATGGGTA | -0.0713
AGTGTCCC | 0.09
ATCAGGTC | -0.119
GCTCATAA | 0.0116
AATAATCG | 0.0208
CCGTCCCA | -0.0188
ATGCTCGA | -0.139
ATGATAAT | -0.0531
GGCCTGGA | -0.279
CACAAGTC | -0.187
AGCTTTAC | -0.0918
AGGAAGAA | -0.278

Sequence | PBM E-score
CGTTGACA | -0.231
GAAAGAAC | 0.0241
ACGGGGAC | 0.111
AGTGAGAG | -0.141
CAGAGACG | -0.159
GCCCAGCA | -0.106
ACCGCGGA | 0.335
ACTACCAA | -0.131
AGATAACC | 0.0152
CGGTTGTC | 0.162
GCGACTAA | -0.108
ATATCTAC | 0.0331
GCCTGTAA | -0.15
ATCTTCCA | -0.137
AGTTATAG | -0.257
ATTACCTA | -0.0235
AGCTCGAC | -0.0952
CCCAGGCC | -0.0781
CGGGTAGC | 0.37
